# Reference: article PMC12820563
# The list shows a part of the results. The list includes weakly bound sequences.
# Molecular target: T1, MBP-FoxP3dN (UniProt Q99JB6)
# T1 sequence: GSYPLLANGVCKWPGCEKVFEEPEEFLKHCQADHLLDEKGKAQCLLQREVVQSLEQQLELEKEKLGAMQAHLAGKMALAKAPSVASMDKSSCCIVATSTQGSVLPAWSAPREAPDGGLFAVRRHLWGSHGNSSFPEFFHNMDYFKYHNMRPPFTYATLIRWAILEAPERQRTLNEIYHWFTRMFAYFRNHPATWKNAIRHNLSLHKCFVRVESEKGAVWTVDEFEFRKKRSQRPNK
# Experiment: PD-seq (MBP pull-down with sequencing)
# Conditions: 20 mM Tris-HCl pH 7.5, 100 mM NaCl, 1.5 mM MgCl2, 0.4 uM protein, 0.1 uM dsDNA library, 30 min, room temperature, amylose pull-down; high values mean tight binding; double strand, one strand shown
row,Sequence,binding signal (RPM ratio (pull-down/input))
1,GATGATTGTTCTCCCAGCTGATGAATTAAACGGGTCGAGTAAACAAATTTTCCTAATCTTTCTGTTCAAGCGCCATCTAC,0.233
2,GATGATTGTTCTCCCAGCTGATGAATTCCCAGAATCGAGTAAACAAATTTTCCTAATCTTTCTGTTCAAGCGCCATCTAC,0.159
3,GATGATTGTTCTCCCAGCTGATGAATTTGCAATGTCGAGTAAACAAATTTTCCTAATCTTTCTGTTCAAGCGCCATCTAC,2.54
4,GATGATTGTTCTCCCAGCTGATGAATTCATATTTTCGAGTAAACAAATTTTCCTAATCTTTCTGTTCAAGCGCCATCTAC,0.609
5,GATGATTGTTCTCCCAGCTGATGAATTATATAGATCGAGTAAACAAATTTTCCTAATCTTTCTGTTCAAGCGCCATCTAC,0.438
6,GATGATTGTTCTCCCAGCTGATGAATTTACGAGGTCGAGTAAACAAATTTTCCTAATCTTTCTGTTCAAGCGCCATCTAC,0.366
7,GATGATTGTTCTCCCAGCTGATGAATTCACCTGATCGAGTAAACAAATTTTCCTAATCTTTCTGTTCAAGCGCCATCTAC,0.235
8,GATGATTGTTCTCCCAGCTGATGAATTGGAGATGTCGAGTAAACAAATTTTCCTAATCTTTCTGTTCAAGCGCCATCTAC,0.343
9,GATGATTGTTCTCCCAGCTGATGAATTCCGATAATCGAGTAAACAAATTTTCCTAATCTTTCTGTTCAAGCGCCATCTAC,0.284
10,GATGATTGTTCTCCCAGCTGATGAATTGTGCGTTTCGAGTAAACAAATTTTCCTAATCTTTCTGTTCAAGCGCCATCTAC,5.5
11,GATGATTGTTCTCCCAGCTGATGAATTAGACGCATCGAGTAAACAAATTTTCCTAATCTTTCTGTTCAAGCGCCATCTAC,1.07
12,GATGATTGTTCTCCCAGCTGATGAATTAAACTCATCGAGTAAACAAATTTTCCTAATCTTTCTGTTCAAGCGCCATCTAC,0.448
13,GATGATTGTTCTCCCAGCTGATGAATTCGCGGGATCGAGTAAACAAATTTTCCTAATCTTTCTGTTCAAGCGCCATCTAC,0.312
14,GATGATTGTTCTCCCAGCTGATGAATTGAGTTTATCGAGTAAACAAATTTTCCTAATCTTTCTGTTCAAGCGCCATCTAC,3.31
15,GATGATTGTTCTCCCAGCTGATGAATTCCGTCCATCGAGTAAACAAATTTTCCTAATCTTTCTGTTCAAGCGCCATCTAC,0.515
16,GATGATTGTTCTCCCAGCTGATGAATTCTTGCTCTCGAGTAAACAAATTTTCCTAATCTTTCTGTTCAAGCGCCATCTAC,0.274
17,GATGATTGTTCTCCCAGCTGATGAATTTCTTTTCTCGAGTAAACAAATTTTCCTAATCTTTCTGTTCAAGCGCCATCTAC,1.15
18,GATGATTGTTCTCCCAGCTGATGAATTCTTTGCCTCGAGTAAACAAATTTTCCTAATCTTTCTGTTCAAGCGCCATCTAC,0.403
19,GATGATTGTTCTCCCAGCTGATGAATTTTCTGGATCGAGTAAACAAATTTTCCTAATCTTTCTGTTCAAGCGCCATCTAC,0.161
20,GATGATTGTTCTCCCAGCTGATGAATTCGGGCCCTCGAGTAAACAAATTTTCCTAATCTTTCTGTTCAAGCGCCATCTAC,0.328
21,GATGATTGTTCTCCCAGCTGATGAATTAATGTAATCGAGTAAACAAATTTTCCTAATCTTTCTGTTCAAGCGCCATCTAC,1.05

row,Sequence,binding signal (RPM ratio (pull-down/input))
1,GATGATTGTTCTCCCAGCTGATGAATTCACACGTTCGAGTAAACAAATTTTCCTAATCTTTCTGTTCAAGCGCCATCTAC,0.354
2,GATGATTGTTCTCCCAGCTGATGAATTCCTCTGTTCGAGTAAACAAATTTTCCTAATCTTTCTGTTCAAGCGCCATCTAC,0.248
3,GATGATTGTTCTCCCAGCTGATGAATTTCTTTAATCGAGTAAACAAATTTTCCTAATCTTTCTGTTCAAGCGCCATCTAC,0.295
4,GATGATTGTTCTCCCAGCTGATGAATTTTGCCCTTCGAGTAAACAAATTTTCCTAATCTTTCTGTTCAAGCGCCATCTAC,1.57
5,GATGATTGTTCTCCCAGCTGATGAATTAAGTTTCTCGAGTAAACAAATTTTCCTAATCTTTCTGTTCAAGCGCCATCTAC,1.58
6,GATGATTGTTCTCCCAGCTGATGAATTGAACGCCTCGAGTAAACAAATTTTCCTAATCTTTCTGTTCAAGCGCCATCTAC,0.571
7,GATGATTGTTCTCCCAGCTGATGAATTGCTGGGATCGAGTAAACAAATTTTCCTAATCTTTCTGTTCAAGCGCCATCTAC,0.448
8,GATGATTGTTCTCCCAGCTGATGAATTGACGACGTCGAGTAAACAAATTTTCCTAATCTTTCTGTTCAAGCGCCATCTAC,0.348
9,GATGATTGTTCTCCCAGCTGATGAATTTCTTAGGTCGAGTAAACAAATTTTCCTAATCTTTCTGTTCAAGCGCCATCTAC,0.273
10,GATGATTGTTCTCCCAGCTGATGAATTCTAGTGTTCGAGTAAACAAATTTTCCTAATCTTTCTGTTCAAGCGCCATCTAC,0.908
11,GATGATTGTTCTCCCAGCTGATGAATTAAGGTTTTCGAGTAAACAAATTTTCCTAATCTTTCTGTTCAAGCGCCATCTAC,0.677
12,GATGATTGTTCTCCCAGCTGATGAATTCTTTCGATCGAGTAAACAAATTTTCCTAATCTTTCTGTTCAAGCGCCATCTAC,0.223
13,GATGATTGTTCTCCCAGCTGATGAATTATTCTGTTCGAGTAAACAAATTTTCCTAATCTTTCTGTTCAAGCGCCATCTAC,0.379
14,GATGATTGTTCTCCCAGCTGATGAATTCACTTGTTCGAGTAAACAAATTTTCCTAATCTTTCTGTTCAAGCGCCATCTAC,1.02
15,GATGATTGTTCTCCCAGCTGATGAATTATCCCCATCGAGTAAACAAATTTTCCTAATCTTTCTGTTCAAGCGCCATCTAC,0.287
16,GATGATTGTTCTCCCAGCTGATGAATTATAATAATCGAGTAAACAAATTTTCCTAATCTTTCTGTTCAAGCGCCATCTAC,0.511
17,GATGATTGTTCTCCCAGCTGATGAATTCGATCGTTCGAGTAAACAAATTTTCCTAATCTTTCTGTTCAAGCGCCATCTAC,0.488
18,GATGATTGTTCTCCCAGCTGATGAATTTCAGGGCTCGAGTAAACAAATTTTCCTAATCTTTCTGTTCAAGCGCCATCTAC,0.225
19,GATGATTGTTCTCCCAGCTGATGAATTCGGTAAATCGAGTAAACAAATTTTCCTAATCTTTCTGTTCAAGCGCCATCTAC,0.35
20,GATGATTGTTCTCCCAGCTGATGAATTGAGATCATCGAGTAAACAAATTTTCCTAATCTTTCTGTTCAAGCGCCATCTAC,0.372
21,GATGATTGTTCTCCCAGCTGATGAATTTGATGCCTCGAGTAAACAAATTTTCCTAATCTTTCTGTTCAAGCGCCATCTAC,4.09

row,Sequence,binding signal (RPM ratio (pull-down/input))
1,GATGATTGTTCTCCCAGCTGATGAATTTATCTTGTCGAGTAAACAAATTTTCCTAATCTTTCTGTTCAAGCGCCATCTAC,0.727
2,GATGATTGTTCTCCCAGCTGATGAATTTCACTGATCGAGTAAACAAATTTTCCTAATCTTTCTGTTCAAGCGCCATCTAC,0.284
3,GATGATTGTTCTCCCAGCTGATGAATTGATGGGGTCGAGTAAACAAATTTTCCTAATCTTTCTGTTCAAGCGCCATCTAC,0.404
4,GATGATTGTTCTCCCAGCTGATGAATTTGTTAGATCGAGTAAACAAATTTTCCTAATCTTTCTGTTCAAGCGCCATCTAC,2.02
5,GATGATTGTTCTCCCAGCTGATGAATTGATCGTATCGAGTAAACAAATTTTCCTAATCTTTCTGTTCAAGCGCCATCTAC,0.676
6,GATGATTGTTCTCCCAGCTGATGAATTCTTGTCTTCGAGTAAACAAATTTTCCTAATCTTTCTGTTCAAGCGCCATCTAC,0.367
7,GATGATTGTTCTCCCAGCTGATGAATTCGAATATTCGAGTAAACAAATTTTCCTAATCTTTCTGTTCAAGCGCCATCTAC,0.521
8,GATGATTGTTCTCCCAGCTGATGAATTTCCGATTTCGAGTAAACAAATTTTCCTAATCTTTCTGTTCAAGCGCCATCTAC,0.333
9,GATGATTGTTCTCCCAGCTGATGAATTGTGAGTTTCGAGTAAACAAATTTTCCTAATCTTTCTGTTCAAGCGCCATCTAC,2.91
10,GATGATTGTTCTCCCAGCTGATGAATTCTCCGGATCGAGTAAACAAATTTTCCTAATCTTTCTGTTCAAGCGCCATCTAC,0.137
11,GATGATTGTTCTCCCAGCTGATGAATTTCCTTTCTCGAGTAAACAAATTTTCCTAATCTTTCTGTTCAAGCGCCATCTAC,0.328
12,GATGATTGTTCTCCCAGCTGATGAATTATCCAGGTCGAGTAAACAAATTTTCCTAATCTTTCTGTTCAAGCGCCATCTAC,0.164
13,GATGATTGTTCTCCCAGCTGATGAATTCTCTCGATCGAGTAAACAAATTTTCCTAATCTTTCTGTTCAAGCGCCATCTAC,0.223
14,GATGATTGTTCTCCCAGCTGATGAATTCATATCTTCGAGTAAACAAATTTTCCTAATCTTTCTGTTCAAGCGCCATCTAC,0.762
15,GATGATTGTTCTCCCAGCTGATGAATTGGCAGAGTCGAGTAAACAAATTTTCCTAATCTTTCTGTTCAAGCGCCATCTAC,0.212
16,GATGATTGTTCTCCCAGCTGATGAATTTTTCCCATCGAGTAAACAAATTTTCCTAATCTTTCTGTTCAAGCGCCATCTAC,0.246
17,GATGATTGTTCTCCCAGCTGATGAATTTGCAGGATCGAGTAAACAAATTTTCCTAATCTTTCTGTTCAAGCGCCATCTAC,0.385
18,GATGATTGTTCTCCCAGCTGATGAATTGTTTGGTTCGAGTAAACAAATTTTCCTAATCTTTCTGTTCAAGCGCCATCTAC,4.48
19,GATGATTGTTCTCCCAGCTGATGAATTACCACCGTCGAGTAAACAAATTTTCCTAATCTTTCTGTTCAAGCGCCATCTAC,0.348
20,GATGATTGTTCTCCCAGCTGATGAATTAGTAGGGTCGAGTAAACAAATTTTCCTAATCTTTCTGTTCAAGCGCCATCTAC,1.4
21,GATGATTGTTCTCCCAGCTGATGAATTCACGGATTCGAGTAAACAAATTTTCCTAATCTTTCTGTTCAAGCGCCATCTAC,0.229
